Measurements reported in PubChem BioAssay AID1346428 (National Center for Advancing Translational Sciences (NCATS), 2018).
Several values for one entry are separate records, joined by “and”; a condition that tells them apart may be missing. Equal values may be shown once. In all, about 48,000 compounds went through this assay and about 1,200 (2.5%) were called active. Not shown: some 2% with an inconclusive outcome.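 Rule for the calls: active = activation of at least 60% and not above a set upper limit (about 1 call in 100 departs from these limits); inconclusive = activation of 40% to 60%, or above that upper limit; inactive = activation under 40%.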 The list shows a part of the results.

These molecules were tested against Probable G-protein coupled receptor 32 (Homo sapiens) (UniProt O75388) (assay: qHTS for Agonists of Human Resolvin D1 Receptor DRV1). Conditions: CHO-K1 GPR32 beta-arrestin PathHunter luminescence, 90 min; at 76.9 µM; hits give high values; zero percent set by DMSO-only wells.
In short: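 Engineered CHO-K1 line co-expressing GPR32-ProLink and EA-beta-arrestin. Compound treatment lasted 90 min at 37 °C. Luminescence was recorded after 1 h with substrate at ambient temperature, relative to DMSO basal wells.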
Note: 0% is about no effect.

UniProt O75388, sequence (O75388 whole entry, looked up): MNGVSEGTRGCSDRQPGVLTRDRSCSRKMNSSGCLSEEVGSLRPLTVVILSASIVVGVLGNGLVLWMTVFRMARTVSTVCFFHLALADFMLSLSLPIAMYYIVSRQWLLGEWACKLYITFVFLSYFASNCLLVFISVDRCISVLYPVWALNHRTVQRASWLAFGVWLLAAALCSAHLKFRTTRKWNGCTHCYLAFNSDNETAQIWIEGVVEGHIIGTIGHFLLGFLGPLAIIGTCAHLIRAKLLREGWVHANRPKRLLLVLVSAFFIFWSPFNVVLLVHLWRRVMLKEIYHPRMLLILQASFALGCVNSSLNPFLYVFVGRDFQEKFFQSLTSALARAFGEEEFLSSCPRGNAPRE

| SMILES | activation |
| --- | --- |
| COc1ccc(NC(=O)c2ccc(-c3nc(CSc4ccccc4)c(C)o3)cc2)c(OC)c1 | inactive: 9.73% |
| O=C(CCc1nnc2n(Cc3ccccc3Cl)c(=O)c3ccccc3n12)Nc1ccccc1 | inactive: 5.98% |
| COc1ccc(NC(=O)C(=O)NCCc2csc3nc(-c4ccccc4C)nn23)cc1 | inactive: -4.95% |
| O=C(C1CC1)N1CCc2cc(Br)cc(S(=O)(=O)Nc3ccc(C(F)(F)F)cc3)c21 | active: 65.4% |
| COCCNC(=O)c1ccc(NC(=O)N2CCCCc3ccccc32)cc1 | inactive: -17.2% |
| CCOc1ccc(CNC(=O)CN2C(=O)CSc3c2c(C)nn3-c2ccccc2)cc1 | inactive: -22.2% |
| O=C(Nc1c(O)c2ccccc2oc1=O)c1ccccc1Cl | inactive: 1.82% |
| Cc1ccc(CSc2nc3cccnc3n2Cc2nc(-c3ccccc3F)oc2C)cc1 | inactive: -9.37% |
| COc1ccc(S(=O)(=O)N(CCc2ccccc2)CC(=O)NCc2ccc(C)cc2)cc1 | inactive: -4.55% |
| CCCC(=O)Nc1nnc(S(=O)(=O)N(C)c2ccccc2)s1 | inactive: -11.6% |
| COC(=O)c1ccccc1NC(=O)CSc1c2c(nc3ccc(Cl)cc13)CCCC2 | inactive: -13% |
| COc1ccccc1CCNC(=O)C1CCN(c2nc3ccccc3nc2C(F)(F)F)CC1 | inactive: -24.4% |
| CCCN(CCC)C(=O)C(CCC(=O)O)NC(=O)c1ccccc1 (stereo not given) | inactive: -4.12% and inactive: -10% |
| O=C(NCC(c1cccnc1)N1CCN(Cc2ccccc2)CC1)C(=O)Nc1ccc(F)cc1 (stereo not given) | inactive: -11.3% |
| Cc1cc(C)c(S(=O)(=O)Nc2ccc(-c3ccc(N4CCCCC4)nn3)cc2)cc1C | inactive: 10.4% |
| COc1cccc(CNC(=O)C2CCCN(c3nnc(-n4c(C)ccc4C)s3)C2)c1 (stereo not given) | inactive: 25.2% |
| CCOC(=O)N1CCN(CCC(=O)Nc2cc(C)ccc2C)CC1 | inactive: -2.14% |
| CC(C)c1ccc(NC(=O)CN(C)S(=O)(=O)c2ccc3c(c2)n(C)c(=O)c(=O)n3C)cc1 | inactive: -9.83% |
| CCn1cnc2cc(NCc3ccc(N(C)C)cc3)ccc21 | inactive: -19.7% |
| CCCCCCCCCCCCOS(=O)(=O)O | inactive: 10.1% |
| CCC1CCCCN1C(=O)CSc1nc(-c2ccc(OC)cc2)cc(C(F)(F)F)n1 (stereo not given) | inactive: 3.13% |
| CCc1ccc(CNC(=O)c2cnc3sc(N4CCCCCC4)nn3c2=O)cc1 | inactive: 3.43% |

| SMILES | activation |
| --- | --- |
| CCOc1ccc(C(=O)Nc2ccc3nc(SCC(=O)N4CCCC4)sc3c2)cc1 | inactive: -5.57% |
| CCn1cc2nc(SCC(=O)Nc3cccc(Cl)c3C)n(Cc3ccc(Cl)cc3)c(=O)c2n1 | inactive: -18% |
| O=C(NCCc1ccc(Cl)cc1)c1ccc2c(c1)N(Cc1ccccc1)C(=O)CS2 | inactive: -11.6% |
| Cc1ccc(NC(=O)CN2C(=O)c3ccccc3Sc3ncccc32)c(C)c1 | inactive: 7.84% |
| Cc1ccc(NC(=O)c2sc3nc[nH]c(=O)c3c2C)cc1C | inactive: 7.48% |
| COc1ccccc1NC(=O)C1=C(C)Nc2nc(SCc3ccccc3)nn2C1c1cccs1 (stereo not given) | inactive: -38.8% |
| CCn1c(SCC(=O)Nc2cc(Cl)ccc2OC)nc2c([nH]c3ccccc32)c1=O | inactive: 11.7% |
| CC(=O)c1ccc(NC(=O)c2nn(C)c3c2COc2ccccc2-3)cc1 | inactive: -5.39% |
| CCc1cc2c(-c3ccccc3)cc(=O)oc2c2c1OCN(Cc1ccc(C)cc1)C2 | inactive: -37.6% |
| CCOC(=O)c1c(NC(=O)c2cc(-c3ccc(Br)cc3)on2)sc(C)c1C | inactive: 5.98% |
| CC(Oc1ccccc1F)C(=O)N1CCC(c2nc3ccccc3o2)CC1 (stereo not given) | inactive: 10.8% |
| CCOc1ccccc1NC(=O)N1CCC(N2CCN(Cc3ccccc3)C(=O)C2=O)CC1 | inactive: -16.1% |
| O=c1c2ccccc2nc(-c2ccc(Cl)cc2)n1CCCCOc1ccc(F)cc1 | inactive: -16.2% |
| COC(=O)c1ccc(NC(=O)CCOc2ccccc2)cc1 | inactive: -5.4% |
| Cc1ccc(Cn2c(Cc3ccccc3)nc3ccccc32)cc1 | inactive: -50.1% |
| CCOC(=O)c1ccccc1NC(=O)CCc1c(C)nc2c(c1C)c(=O)n(C)c(=O)n2C | inactive: -4.1% |
| CCOc1ccc(CN2C(=O)c3ccccc3Sc3ccc(C(=O)NC4CCC(C)CC4)cc32)cc1 (stereo not given) | inactive: 10% |
| CC(COc1ccccc1)NN (stereo not given) | inactive: -35.5% |
| COC(=O)c1ccc(NC(=O)c2cc3cc4ccc(OC)c(Cl)c4nc3s2)cc1 | inactive: -15.8% |
| COc1ccc(CNC(=O)CCS(=O)(=O)c2cc3c4c(c2)CCN4C(=O)CC3)cc1 | inactive: 7.23% |
| COc1ccc(-c2noc(CSc3nnc(-c4ccncc4)n3-c3ccc(OC)cc3)n2)cc1 | inactive: -20.7% |
| Cc1cccc(NC(=O)Cn2c(=O)oc3cc(S(=O)(=O)N4CCCCCC4)ccc32)c1 | inactive: 37.9% |

| SMILES | activation |
| --- | --- |
| Cn1cc(C(=O)N2CCN(c3ccccc3)CC2)c(=O)c2cc(S(=O)(=O)N3CCCC3)ccc21 | inactive: -10.4% |
| O=C(NC1CC(=O)N(c2ccc(F)cc2)C1)C(c1ccccc1)c1ccccc1 (stereo not given) | inactive: -16.1% |
| CCOC(=O)c1cc(-c2ccccc2)n(-c2cccc(C(=O)Nc3cccc(C)c3)c2)c1C | inactive: -18.9% |
| Cc1ccc2nc(COc3cccc(NC(=O)COc4ccccc4F)c3)cc(=O)n2c1 | inactive: -0.816% |
| O=C(C1CC1)N1CCc2cc(Br)cc(S(=O)(=O)N3CCN(c4cccc(Cl)c4)CC3)c21 | inactive: -5.06% |
| Cc1ccc(CSc2ccc3nnc(CCNS(=O)(=O)c4ccc(C)cc4)n3n2)cc1 | inactive: -22.7% |
| O=C(Nc1ccc2nc(SCC(=O)N3CCCC3)sc2c1)c1ccc(Br)cc1 | inactive: -2.74% |
| Cc1cccc(OCC(=O)OCc2cc(=O)n3nc(-c4cccs4)sc3n2)c1 | inactive: -5.06% |
| CCC(C)NC(=O)Cn1c(=O)n(-c2ccc(Cl)c(Cl)c2)c(=O)c2c(C)c(C(=O)N(CC)CC)sc21 (stereo not given) | inactive: -17.7% |
| Cc1ccc(-n2ncc(C(=O)N3CCN(c4ccccn4)CC3)c2C2CCN(C(=O)OC(C)(C)C)CC2)cc1 | inactive: -8.92% |
| CCc1nn(Cc2cccc(F)c2)c(=O)c2cc3cc(C)ccc3n12 | inactive: 25.9% |
| Cc1ccc(NC(=O)c2cc(S(=O)(=O)N3CCCc4ccccc43)ccc2F)cc1F | inactive: -13.9% |
| COc1ccc(Nc2c(-c3ccc(C)o3)nc3ccc(Cl)cn23)cc1 | inactive: -18.7% |
| COC(=O)c1ccccc1NC(=O)Cn1c(=O)nc(-c2ccccc2)c2cc(Cl)ccc21 | inactive: -12.3% |
| Cc1cccc(C)c1Nc1c(-c2cccs2)nc2ncccn12 | inactive: 48.1% |
| CCCCCCCCCCC[C@@H](C[C@@H]1OC(=O)[C@H]1CCCCCC)OC(=O)[C@H](CC(C)C)NC=O | inactive: 6.37% |
| CCCCC(=O)Nc1cc2nn(-c3ccc(OCC)cc3)nc2cc1C | inactive: 26.9% |
| Cc1cccc(Cn2cc(S(=O)(=O)c3ccc(Cl)cc3)c(=O)c3cc4c(cc32)OCO4)c1 | inactive: -9.24% |
| Cc1ccc(OCC(=O)Nc2cc(-c3nc4ccccc4[nH]3)ccc2C)c(C)c1 | inactive: -5.98% |
| CS(=O)(=O)N1CCC(n2c(C(F)(F)F)nc3cccnc32)CC1 | inactive: 5.81% |
| Cc1cccc(OCCSc2nc3ccc(NC(=O)c4cccs4)cc3s2)c1 | inactive: 16.2% |
| Cn1c(=O)c2c(SCC(=O)NCC3CCCO3)nc(-c3cccc(F)c3)nc2n(C)c1=O (stereo not given) | inactive: -5.92% |

| SMILES | activation |
| --- | --- |
| CCn1c(=O)sc2cc(NC(=O)c3cccc(OC)c3)ccc21 | inactive: 35.4% |
| CC(C)c1nn2c(=O)cc(COC(=O)CNC(=O)c3ccccc3Cl)nc2s1 | inactive: 1.75% |
| O=C(Cn1ccn(-c2ccc(F)c(F)c2)c(=O)c1=O)c1ccc(F)cc1 | inactive: -5.72% |
| CCN1CCN(c2nnc(-n3cccc3C(=O)Nc3cccc(OC)c3)s2)CC1 | inactive: -3.54% |
| CCOc1ccc(Cn2c(CNS(=O)(=O)c3c(C)cc(C)cc3C)nc3cccnc32)cc1 | inactive: -20.1% |
| CCC(C)n1c(SCc2ccc(C(C)(C)C)cc2)nc2ccsc2c1=O (stereo not given) | inactive: -12.5% |
| Cc1nnc(NC(=O)CSc2nccn2-c2ccc(Cl)cc2)s1 | inactive: -14.9% |
| Oc1cn2c(n1)Nc1ccc(Cl)c(Cl)c1C2 | inactive: -10.5% |
| O=S(=O)(c1ccccc1)c1nc(-c2cccs2)oc1SCc1ccccc1Cl | inactive: -22% |
| Cc1ccc(OCc2nc(-c3ccc(C(=O)N4CCN(c5cc(Cl)ccc5C)CC4)cc3)oc2C)cc1 | inactive: 3.58% |
| COC(=O)c1ccc(C(=O)OC)c(NC(=O)N2CC3CCCN3c3ccccc32)c1 (stereo not given) | inactive: -22.2% |
| CCOC(=O)CC(=O)CSc1nc2ccccc2c(=O)n1-c1ccc(C(=O)NCCOC)cc1 | inactive: -27.3% |
| Cc1ccc(Cl)cc1N1CCN(C(=O)c2cc3c(=O)n(C)c4ccccc4c3s2)CC1 | inactive: 5.73% |
| O=C(CC1NCCNC1=O)Nc1ccccc1F (stereo not given) | inactive: 0.823% |
| CCOC(=O)c1c(-c2ccc(C)cc2)csc1NC(=O)c1cc(=O)c2cc(Cl)ccc2o1 | inactive: -3.4% |
| CCOc1ccccc1NC(=O)CSc1nc2c([nH]c3ccccc32)c(=O)n1-c1ccccc1 | inactive: -39.5% |
| Cc1ccc(NC(=O)NCCOCCn2c(=O)oc3ccccc32)cc1F | inactive: 17.7% |
| O=C1O[C@H](CO)[C@@H](O)[C@H](O)[C@H]1O | inactive: 2.21% |
| O=C(OCC1CCCO1)c1ccc2c(c1)N(Cc1cccc(Cl)c1)C(=O)c1ccccc1S2(=O)=O (stereo not given) | inactive: -27.1% |
